Assays:
Assay type in all cases: in vivo
[1] = tested on: powdery mildew (Erysiphe graminis); experiment: Preventive effect on barley powdery mildew by spraying; settings: 20 ppm, sprayed on barley (Kanto No. 6), inoculated 7 days after treatment
Description: Seven days after the treatment, the plants were inoculated with spores of powdery mildew (Erysiphe graminis) by the method of powdering. Seven days after the inoculation, the number of lesions was counted, from which controlling degree was calculated according to Test Example 1. In the untreated plot, the number of lesions was 17.7 per leaf.

[2] = tested on: wheat powdery mildew; experiment: Controlling test on wheat powdery mildew; settings: 100 ppm, wheat in internode elongation period, flag leaves two months after treatment
From the text: In the untreated plot, the areal rate of lesion was 15%. […] [formula]

[3] = tested on: rice bakanae disease fungi (Gibberella fujikuroi); experiment: Controlling effect on rice bakanae disease by seed coating treatment; settings: 0.2 wt. % of active ingredient per dry unhulled rice, diseased seedling rate
Description: After the treatment, the unhulled rice was air-dried overnight, immersed in water at 15° C. for one week, and then kept at 30° C. to promote germination, after which the unhulled rice seeds were sown in a seedling raising box, germination thereof was hastened at 30C for 3 days, and the plants were cultivated in a greenhouse for about one month. Then, the diseased seedling rate was investigated, from which the controlling degree was calculated according to the following equation. In the untreated plot, the diseased seedling rate was 78%.

[4] = tested on: downy mildew (Pseudoperonospora cubensis); experiment: Controlling effect on cucumber downy mildew by soil mixing treatment; settings: 0.1 g active ingredient per pot, cucumber (Suyo), inoculated after 2 weeks
Description: Then, cucumber (variety: Suyo) seedlings of cotyledon-developing period were transplanted into the pots. […] Seven days after the inoculation, the plants were investigated and evaluated according to Test Example 3, from which controlling degree was determined. In the untreated plot, the disease occurrence index was 6.5.

[5] = tested on: powdery mildew (Erysiphe graminis); experiment: Controlling effect on wheat powdery mildew by seed coating treatment; settings: 1 % active ingredient per dry seed weight, wheat (Chihoku), inoculated one month after seeding
Description: A small quantity of water was added thereto and thoroughly mixed together to carry out a seed coating treatment. After the treatment, the seeds were air-dried overnight, sown in pots, and cultivated in a greenhouse. One month after the seeding, the plants were inoculated with spores of powdery mildew (Erysiphe graminis) by the method of powdering. Seven days after the inoculation, the number of lesions was counted, from which controlling degree was calculated according to Test Example 1. In the untreated plot, the number of lesions per leaf was 25.

How did the “Actual controlling degree (%)” value [1] turn out when CO/C=C(/C(=O)OC)c1ccccc1Oc1cc(Oc2ccccc2C#N)ncn1 [Azoxystrobin, Methyl (E)-2-{2-[6-(2-cyanophenoxy)pyrimidin-4-yloxy]phenyl}-3-methoxyacrylate] was run?
Its value is 60%.

And the “Controlling degree (%)” value [2]?
The value was 40%.

How did the “Controlling degree (%)” value [3] turn out when CCn1cc(C(=O)O)c(=O)c2cc3c(cc21)OCO3 [Oxolinic acid, 5-Ethyl-5,8-dihydro-8-oxo[1,3]dioxolo[4,5-g]-quinoline-7-carboxylic acid] was run?
The value was 0%.

CCCCNC(=O)n1c(NC(=O)OC)nc2ccccc21 [Benomyl, Methyl 1-(butylcarbamoyl)-2-benzimidazole-carbamate] was tested. Which “Controlling degree (%)” value [4] did it give?
The value was 2%.

What about the “Controlling degree (%)” value [5] of the same molecule?
The value was 0%.

For CCCC1COC(Cn2cncn2)(c2ccc(Cl)cc2Cl)O1 (stereo not drawn) [Propiconazole, 1-[2-(2,4-dichlorophenyl)-4-propyl-1,3-dioxolan-2-ylmethyl]-1H-1,2,4-triazole], which “Actual controlling degree (%)” value [1] is on record?
The value was 63%.

Source: patent US20020013350A1 (priority 1998, published 2002)
